Results: PubChem BioAssay AID588591 (National Center for Advancing Translational Sciences (NCATS), 2011)
The campaign covered roughly 390,000 compounds. About 4,700 (1.2%) were called active. The shares of active, inactive and inconclusive entries below differ from those in the screen. Calls come from the whole dose curve; as a rule, active = well fitted inhibition curve with a large enough effect; inconclusive = small, poorly fitted or top-dose-only effect, or another doubt; inactive = no such curve, though single readings can be large or run the other way. Where the call is inconclusive, the potency comes from a doubtful curve fit.

Molecular target: DNA polymerase eta (Homo sapiens) (UniProt Q9Y253)
Assay: qHTS for Inhibitors of Polymerase Eta
Conditions: recombinant Pol eta, fluorescent DNA replication assay; series mostly up to 114 µM; activity change, negative = inhibition: at the top concentration
Outline: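 Pol eta (10 nM) was preincubated with compounds for 15 min at room temperature, after which fluorescent replication substrate (50 nM final) was added to start the reaction. Fluorescence was read kinetically at 0 and 10 min.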
% is set by controls: 0 for no effect and ±100 for the full control effect; potency is the fitted concentration of half-maximal effect; tags give direction and shape of the fitted curve.

UniProt Q9Y253, sequence (Q9Y253 whole entry, looked up): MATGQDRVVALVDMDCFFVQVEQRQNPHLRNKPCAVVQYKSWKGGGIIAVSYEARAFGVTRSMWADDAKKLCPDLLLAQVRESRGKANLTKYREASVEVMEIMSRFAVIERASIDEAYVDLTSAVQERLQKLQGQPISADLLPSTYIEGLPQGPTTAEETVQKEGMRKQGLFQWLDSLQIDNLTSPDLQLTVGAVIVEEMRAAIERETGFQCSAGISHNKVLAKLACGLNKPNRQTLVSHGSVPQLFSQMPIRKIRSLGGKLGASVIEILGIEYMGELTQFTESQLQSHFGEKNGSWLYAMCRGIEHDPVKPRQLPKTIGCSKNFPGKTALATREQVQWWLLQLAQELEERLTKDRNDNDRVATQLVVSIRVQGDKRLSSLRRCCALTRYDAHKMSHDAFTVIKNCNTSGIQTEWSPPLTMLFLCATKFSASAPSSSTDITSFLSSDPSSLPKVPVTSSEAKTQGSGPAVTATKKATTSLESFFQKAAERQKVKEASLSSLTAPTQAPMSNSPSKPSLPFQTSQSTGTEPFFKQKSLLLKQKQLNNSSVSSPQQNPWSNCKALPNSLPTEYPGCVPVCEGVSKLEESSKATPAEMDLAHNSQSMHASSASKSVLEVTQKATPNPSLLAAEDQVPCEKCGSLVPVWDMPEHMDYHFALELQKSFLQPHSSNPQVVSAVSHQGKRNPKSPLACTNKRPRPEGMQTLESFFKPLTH

Row | SMILES | activity change, negative = inhibition | Potency
1 | COc1ccc(N(CC(=O)NCc2ccccc2Cl)S(=O)(=O)c2c(C)nn(C)c2C)cc1 | inactive: -8.75% | –
2 | CCn1c2ccccc2c2cc(NC(=O)N3CCOCC3)ccc21 | – | inconclusive: 79.4 µM [inhibitor, partial curve, poor fit]
3 | COc1cccc(NC(=O)Cn2nnc(-c3nc(-c4ccccc4)no3)c2N)c1 | inactive: -4.02% | –
4 | CC(=O)Nc1ccc(NC(=O)c2ccc(-n3c(C)ccc3C)cc2)cc1 | – | inconclusive: 39.8 µM [inhibitor, single point]
5 | O=C(CCNC(=O)c1ccccc1Cl)Nc1cccc(S(=O)(=O)N2CCCCC2)c1 | – | inconclusive: 100 µM [inhibitor, partial curve, poor fit]
6 | CN(C)S(=O)(=O)c1cccc(C(=O)NCc2ccco2)c1 | – | inconclusive: 22.4 µM [inhibitor, partial curve]
7 | COc1ccc(CNCC(=O)Nc2ccccc2-n2cccc2)cc1 | – | inconclusive: 79.4 µM [inhibitor, partial curve, poor fit]
8 | O=C(CN1C(=O)c2ccc([N+](=O)[O-])cc2C1=O)Nc1nnc(C2CC2)s1 | – | inconclusive: 28.2 µM [inhibitor, single point]
9 | COc1ccc(-n2c(=S)[nH]c3cc(C(=O)Nc4cc(OC)c(OC)c(OC)c4)ccc3c2=O)c(OC)c1 | – | inconclusive: 20 µM [inhibitor, partial curve, poor fit]
10 | C#Cc1ccc([C@H]2C=C(C(=O)OCC=C)O[C@@H](OCc3ccc(CO)cc3)C2)cc1 | – | active: 28.2 µM
11 | COc1cc(OC)c(C(=O)C=Cc2ccc(OC)c(OC)c2)c(OC)c1 | inactive: -9.16% | –
12 | COc1cc(/C=C(\C#N)c2nc3ccccc3[nH]2)cc(Cl)c1OCc1ccccc1Cl | – | inconclusive: 79.4 µM [inhibitor, partial curve, poor fit]
13 | COc1cccc(CN(C(=O)/C=C/c2ccco2)C2CCS(=O)(=O)C2)c1 (centres undefined) | – | inconclusive: 89.1 µM [inhibitor, partial curve, poor fit]
14 | Cc1c[n+]([O-])n(-c2ccc(C(=O)O)cc2)n1 | – | inconclusive: 15.8 µM [inhibitor, partial curve, poor fit]
15 | Cc1ccc(C(=O)OC(C)CN2C(C)CCCC2C)cc1 (centres undefined) | – | inconclusive: 3.98 µM [inhibitor, full curve]
16 | CCCn1c2ccccc2c2cnn(CC(=O)N(C)c3ccccc3CC)c(=O)c21 | inactive: -7.33% | –
17 | O=[N+]([O-])c1cc(CN(CCO)CCO)ccc1O | – | inconclusive: 50.1 µM [inhibitor, partial curve]
18 | CCc1cccc(C)c1NC(=O)c1cc(S(=O)(=O)NCc2ccccc2Cl)ccc1F | inactive: -10.8% | –
19 | Cc1csc(NC(=O)c2ccc3ccccc3n2)n1 | inactive: 7.3% | –
20 | CCOC(=O)N1CCN(S(=O)(=O)c2ccc(C(=O)Nc3sc4c(c3C#N)CCC4)cc2)CC1 | – | inconclusive: 3.16 µM [inhibitor, partial curve, poor fit]
21 | Nc1nc(SCc2ccc([N+](=O)[O-])cc2)nc2nc3c(cc12)CCCC3 | – | inconclusive: 89.1 µM [inhibitor, partial curve, poor fit]
22 | CN(C)CCCN1C(=O)C(O)=C(C(=O)c2cc3ccccc3o2)C1c1ccccc1 (centres undefined) | – | inconclusive: 28.2 µM [inhibitor, partial curve, poor fit]

Row | SMILES | activity change, negative = inhibition | Potency
23 | C#CCOCCOCCOCCNc1nc(N2CCN(C(=O)[C@H](Cc3ccc(O)cc3)n3cc([C@@H](N)C(C)CC)nn3)CC2)nc(N2CCN(C(=O)[C@H](Cc3cc4ccccc4[nH]3)n3cc([C@@H](N)C(C)CC)nn3)CC2)n1 (some centres undefined) | inactive: -9.23% | –
24 | N#Cc1cc2c(nc1SCC(=O)Nc1sc3c(c1C#N)CCC3)CCC2 | – | inconclusive: 31.6 µM [inhibitor, partial curve, poor fit]
25 | N#Cc1c(-c2ccccc2)cc(-c2ccc(O)cc2)nc1N | – | inconclusive: 28.2 µM [inhibitor, partial curve, poor fit]
26 | N#C/C(C(=O)Nc1ccc(Cl)cc1)=C(/S)Nc1ccccc1 | – | inconclusive: 89.1 µM [inhibitor, partial curve, poor fit]
27 | O=C(O)CCCN1C(=O)/C(=C\C(Cl)=C\c2ccccc2)SC1=S | – | active: 10 µM
28 | Cc1ccc(C(=O)Nc2cccc(O)c2)cc1S(=O)(=O)N1CCCCCC1 | – | inconclusive: 0.355 µM [inhibitor, full curve, poor fit]
29 | N#Cc1ccsc1NC(=O)CN1CCN(c2ccc(O)cc2)CC1 | – | inconclusive: 20 µM [inhibitor, partial curve, poor fit]
30 | S=c1[nH]cc(-c2ccccc2)[nH]1 | inactive: -11.7% | –
31 | Cc1cc2cc(C(c3nnnn3Cc3ccco3)N3CCc4ccccc43)c(=O)[nH]c2cc1C (centres undefined) | – | inconclusive: 25.1 µM [inhibitor, single point]
32 | CN1/C(=C/C=C/c2n(C)c3cc([N+](=O)[O-])c([N+](=O)[O-])cc3[n+]2C)C(C)(C)c2ccccc21 | – | inconclusive: 50.1 µM [inhibitor, partial curve]
33 | Cc1ccc(-c2nc(N/N=C/c3ccncc3)c3ccccc3n2)cc1 | – | active: 44.7 µM
34 | O=C(O)COC(=O)C1C(c2ccccc2)C(C(=O)O)C1c1ccccc1 (centres undefined) | inactive: -8.92% | –
35 | Cc1ccc(-n2nc(CO)c(C(=O)NC(C)CCCc3ccccc3)n2)cc1C (centres undefined) | inactive: -14.6% | –
36 | CN(C)c1ccc(/C=C(/NC(=O)c2ccccc2)C(=O)N/N=C/c2ccc([N+](=O)[O-])c(O)c2)cc1 | – | inconclusive: 89.1 µM [inhibitor, single point]
37 | CCCCCCCC(O)CC(CC1CCCCC1)C(=O)NN (centres undefined) | – | inconclusive: 79.4 µM [inhibitor, partial curve, poor fit]
38 | COc1cc(CN(C)Cc2nc3cc(C(F)(F)F)ccc3c(=O)[nH]2)ccc1OC(F)F | – | inconclusive: 79.4 µM [inhibitor, partial curve, poor fit]
39 | CCN(Cc1ccccc1)C(=O)Cn1cc(S(=O)(=O)Cc2cccc(Cl)c2)c2ccccc21 | inactive: -19.6% | –
40 | O=c1cc(N2CCCCC2)c(-c2ccccc2)nn1Cc1cccc(Cl)c1 | – | inconclusive: 70.8 µM [inhibitor, partial curve, poor fit]
41 | O=C(O)c1ccc2cccnc2n1 | – | inconclusive: 14.1 µM [inhibitor, full curve, poor fit]
42 | Cc1cc2nc3ccc(N(C)C)cc3nc2cc1N | – | inconclusive: 50.1 µM [inhibitor, partial curve, poor fit]
43 | N#CCC(=O)Nc1ccc(C(=O)OCC(=O)Nc2ccc3ccccc3c2)cc1 | – | inconclusive: 14.1 µM [inhibitor, full curve, poor fit]
44 | COc1cc(/C=C2\C(=N)N3N=C(S(C)(=O)=O)SC3=NC2=O)ccc1OCCOc1ccccc1C | – | active: 50.1 µM

Row | SMILES | activity change, negative = inhibition | Potency
45 | Cc1nc(NC(=O)COC(=O)/C=C/c2ccco2)c(Cl)cc1Cl | – | active: 28.2 µM
46 | CC1CCc2c(sc3nc(CN4CCOCC4)nc(NS(=O)(=O)c4cccc([N+](=O)[O-])c4)c23)C1 (centres undefined) | – | inconclusive: 17.8 µM [inhibitor, partial curve, poor fit]
47 | COc1cc(/C=C2\CCc3c2nc2ccccc2c3C(=O)O)cc(OC)c1OC | – | active: 3.16 µM
48 | CCOc1cc(/C=C2\COc3ccccc3C2=O)cc(Br)c1OCC(=O)N(C)C | – | inconclusive: 25.1 µM [inhibitor, partial curve, poor fit]
49 | COc1ccccc1/C=C/C1=NC(=C\C=C/c2ccccc2)/C(=O)O1 | – | inconclusive: 70.8 µM [inhibitor, single point]
50 | CC(=O)c1ccc(OCCCC(=O)Nc2nnc(C3CC3)s2)cc1 | – | inconclusive: 31.6 µM [inhibitor, partial curve, poor fit]
51 | Cc1c(C(=O)N2CCCC2)oc2ccc(Br)cc12 | – | active: 50.1 µM
52 | CCOc1ccc(NC(=O)CC2C(=O)N(c3ccccc3)C(=O)N2C2CCCCC2)cc1 (centres undefined) | inactive: -5.15% | –
53 | COc1ccc(-c2[nH]c(-c3ccccc3)nc2SCC(=O)NCc2ccco2)cc1OC | – | inconclusive: 25.1 µM [inhibitor, partial curve, poor fit]
54 | Cc1csc2nc(COC(=O)c3ccccc3NC(=O)COc3ccccc3F)cc(=O)n12 | inactive: -13.5% | –
55 | CS(=O)(=O)c1ccc(C(=O)OCC(=O)c2ccc(Cl)s2)cc1 | inactive: -11.3% | –
56 | Fc1ccc(OCCn2cnc(Cl)c2Cl)cc1 | – | inconclusive: 79.4 µM [inhibitor, partial curve, poor fit]
57 | COc1ccc(NS(=O)(=O)c2ccc(C)c(C(=O)O)c2)cc1 | – | active: 79.4 µM
58 | CCCN(CCC)S(=O)(=O)c1ccc(NC(=O)Cc2cccs2)cc1 | – | inconclusive: 50.1 µM [inhibitor, partial curve, poor fit]
59 | Oc1ccc(Cl)cc1CNc1ccc(Br)cn1 | – | inconclusive: 3.98 µM [inhibitor, partial curve, poor fit]
60 | Cc1cccc2c(C(=O)Nn3cnnc3)cc(-c3ccccc3Cl)nc12 | – | inconclusive: 56.2 µM [inhibitor, partial curve, poor fit]
61 | O=C(NCc1ccco1)c1ccc(Cn2c(=S)[nH]c3ccccc3c2=O)cc1 | – | inconclusive: 20 µM [inhibitor, full curve]
62 | O=C(O)c1cc(N/N=C/c2ccc(-c3ccccc3)cc2)ccc1Cl | – | inconclusive: 79.4 µM [inhibitor, partial curve]
63 | O=C1C(=O)N(c2nccs2)C(c2ccccc2F)/C1=C(\O)c1ccc2c(c1)OCCO2 (centres undefined) | inactive: -12% | –
64 | O=C(COC(=O)c1ccc(Cl)nc1)NC(=O)c1ccccc1 | – | inconclusive: 39.8 µM [inhibitor, single point]
